Sequences with one replicate were seen in a single cluster, so their values are uncertain.
Test system: ATP
Assay: switch fluorescence ratio, 500 uM ATP over buffer (Cy3 cluster intensity, sum of 5 cycles each) (fold (ratio)); higher = stronger signal-on switching upon ATP binding; sequences stand for … in TCGTCGGCAGCGTCAGATGTGTATAAGAGACAGTTTTTTTTTTTTTTTTTTTTTTTTT…TC
Details: aptamer strand: ATP DNA aptamer (quencher-CACCTGGGGGAGTATTGCGGAGGAAGG + anchor), 100 nM annealed; ATP concentration: 500 uM; one replicate
In short: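 Switching-strand clusters labelled with Cy3 on a modified Illumina MiSeq flow-cell were annealed to 100 nM quencher-labelled ATP aptamer, imaged in selection buffer, and re-imaged after 15 min with 500 uM ATP at 22 °C. This was done over five cycles with NaOH stripping and re-annealing in between. The fluorescence ratio is summed target-cycle over summed buffer-cycle Cy3 intensity per cluster, averaged per switch-domain sequence, excluding clusters outside 100-1000 RFU.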
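Note: ATP exposure 15 min at 22 °C before imaging.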

## GAGAATTACC
  switch fluorescence ratio: 1.05

## GAATAAATAC
  switch fluorescence ratio: 4.37

## GCCATGGCTG
  switch fluorescence ratio: 0.978

## AATAAAACA
  switch fluorescence ratio: 0.969

## TACCTTGTAC
  switch fluorescence ratio: 1.11

## AAGTATCCTG
  switch fluorescence ratio: 0.939

## TGCAACTAGG
  switch fluorescence ratio: 0.986

## TAGGAAAAGA
  switch fluorescence ratio: 1.01

## TCCTGTAGGG
  switch fluorescence ratio: 0.95

## AACCAGCTTC
  switch fluorescence ratio: 1.01

## ACAGGGACGG
  switch fluorescence ratio: 1.03

## TGATCGACCG
  switch fluorescence ratio: 1.02

## TTGACATTCG
  switch fluorescence ratio: 0.982

## TCGGATGGCA
  switch fluorescence ratio: 0.838

## TGTAGGGTGG
  switch fluorescence ratio: 1.02

## GGCAACCCTA
  switch fluorescence ratio: 1.06

## AAATTTAGAC
  switch fluorescence ratio: 1.01

## GTTGTAGGTA
  switch fluorescence ratio: 1.04

## GAGCGGAGTT
  switch fluorescence ratio: 0.994

## TCGGTTGGTC
  switch fluorescence ratio: 0.984

## TTTTGCCGCG
  switch fluorescence ratio: 0.989

## CGTTTGCGT
  switch fluorescence ratio: 1.03

## GGCACATGTG
  switch fluorescence ratio: 1.09

## ACTAGAAAAG
  switch fluorescence ratio: 1

## CATCTCGGCT
  switch fluorescence ratio: 0.971

## ACGGGGTTGA
  switch fluorescence ratio: 1.06

## GCATTCATCC
  switch fluorescence ratio: 1.29

## GCGGGTCGGT
  switch fluorescence ratio: 1.01

## TGGTTAAACA
  switch fluorescence ratio: 1.02

## ATTTGCGCCC
  switch fluorescence ratio: 1.05

## GGCACCATCA
  switch fluorescence ratio: 1.04

## TATTAGAAGA
  switch fluorescence ratio: 0.957

## CAAAATTGAC
  switch fluorescence ratio: 0.991

## GGCAAAAGTG
  switch fluorescence ratio: 0.999

## GTCGCTCCGA
  switch fluorescence ratio: 1.02

## TTACGGGGCT
  switch fluorescence ratio: 1.07

## GATAATTATT
  switch fluorescence ratio: 0.994

## CTCGCCGGAT
  switch fluorescence ratio: 0.975

## CGGGCCAGCT
  switch fluorescence ratio: 1.05

## GCGGATTTGC
  switch fluorescence ratio: 0.998

## GAAGCCGTA
  switch fluorescence ratio: 0.974

## TTCAATGATC
  switch fluorescence ratio: 1.06

## CATGCACTCG
  switch fluorescence ratio: 1.03

## AACTGACCCA
  switch fluorescence ratio: 1.08

## CTTTATGCAT
  switch fluorescence ratio: 1.04

## ATATCATTAA
  switch fluorescence ratio: 1.01

## AACGGTCGAG
  switch fluorescence ratio: 0.965

## TGCAGGAACA
  switch fluorescence ratio: 0.993

## ATGGGGCTA
  switch fluorescence ratio: 0.966

## CTAAGGTCGG
  switch fluorescence ratio: 0.93

## ATCTTATTGG
  switch fluorescence ratio: 1.04

## GACATCGGTC
  switch fluorescence ratio: 1.02

## ATAAAGGAAC
  switch fluorescence ratio: 1.02

## CCACGACTTG
  switch fluorescence ratio: 0.981

## GCCCCTCCAA
  switch fluorescence ratio: 1.29

## GTATGATAA
  switch fluorescence ratio: 0.976

## TGTGGAAGTG
  switch fluorescence ratio: 1.06

## GCGTCTTTGA
  switch fluorescence ratio: 1.02

## TGGTTCGATA
  switch fluorescence ratio: 1.01

## AGACGTAAAA
  switch fluorescence ratio: 1.63

## TGATACGGTG
  switch fluorescence ratio: 1.07

## GATATCACAC
  switch fluorescence ratio: 1.04

## TACTCATGCC
  switch fluorescence ratio: 0.958

## TATTATTCAG
  switch fluorescence ratio: 0.957

## CAGGCGCCGT
  switch fluorescence ratio: 0.999

## ATCTTAGATC
  switch fluorescence ratio: 0.992

## GGGGCCTTGC
  switch fluorescence ratio: 1.07

## TCACTCTCTG
  switch fluorescence ratio: 1.01

## CGTATAGGTA
  switch fluorescence ratio: 0.962

## CTGACAGGTG
  switch fluorescence ratio: 2.09

## CCCAACGTCC
  switch fluorescence ratio: 1.11

## TGATTGCTGA
  switch fluorescence ratio: 0.994

## TAACCTGGAT
  switch fluorescence ratio: 1.21

## TTCCGGTTCA
  switch fluorescence ratio: 0.975

## TCATTTGTA
  switch fluorescence ratio: 0.927

## AGTCGTCCTG
  switch fluorescence ratio: 1.03

## TGGAGCTAAG
  switch fluorescence ratio: 1.1

## TATGAATGCT
  switch fluorescence ratio: 1.01

## GGCGGATGTC
  switch fluorescence ratio: 1

## CTTCCGGGCT
  switch fluorescence ratio: 1.34

## CTGGGCGATG
  switch fluorescence ratio: 0.977

## CGCCGAATTA
  switch fluorescence ratio: 1.04

## CGTTGGTCGA
  switch fluorescence ratio: 1.02

## GCCTGATTAC
  switch fluorescence ratio: 1.05

## ACCTACCATG
  switch fluorescence ratio: 1.24

## CTTATCAATG
  switch fluorescence ratio: 1

## ACCGGCGTCT
  switch fluorescence ratio: 1.28

## GAGGAAAGTT
  switch fluorescence ratio: 1.02

## CGCTCGGGA
  switch fluorescence ratio: 1.04

## TTGTATGTGA
  switch fluorescence ratio: 0.992

## CTATAGGAGG
  switch fluorescence ratio: 0.992

## GCCAACCTGG
  switch fluorescence ratio: 0.998

## GAGTTACCAT
  switch fluorescence ratio: 1.01

## TGTGATCAAG
  switch fluorescence ratio: 1

## AGTCAGAGGG
  switch fluorescence ratio: 0.973

## GCATGTTTGC
  switch fluorescence ratio: 1.01

## CTCATAATCA
  switch fluorescence ratio: 1.03

## GGTTACGGTC
  switch fluorescence ratio: 1.08

## CGCCGAGCAT
  switch fluorescence ratio: 1.06

## TTTCACAAGA
  switch fluorescence ratio: 0.972

## GGTTGACAGG
  switch fluorescence ratio: 1.01

## ATAAGATAGA
  switch fluorescence ratio: 0.983

## TACGGTACTG
  switch fluorescence ratio: 1.33

## TTGGAGGTC
  switch fluorescence ratio: 1.03

## ACATGCGCAT
  switch fluorescence ratio: 0.975

## GCATGATCAT
  switch fluorescence ratio: 0.997

## AAGAATTAGA
  switch fluorescence ratio: 1.03

## CACGGAACGG
  switch fluorescence ratio: 1.06

## ATTGCACGCA
  switch fluorescence ratio: 1.05

## TGGGGTGAGT
  switch fluorescence ratio: 1.02

## ACGCCAA
  switch fluorescence ratio: 1.45

## CGAGTAGGTA
  switch fluorescence ratio: 0.949

## GGTGGTGTCA
  switch fluorescence ratio: 1.01

## GTGACATGTC
  switch fluorescence ratio: 1.04

## GACTTTGGAC
  switch fluorescence ratio: 0.991

## TCACCGTACG
  switch fluorescence ratio: 1.58

## GCAGGTGAA
  switch fluorescence ratio: 1.58

## GACTTTACGC
  switch fluorescence ratio: 1.28

## TTCGTCCTTT
  switch fluorescence ratio: 0.997

## CAGGAATAAG
  switch fluorescence ratio: 0.994

## AGAGGGGCAC
  switch fluorescence ratio: 0.932

## GCCGAGGGAC
  switch fluorescence ratio: 1.01

## AAAGAAGTC
  switch fluorescence ratio: 1.04

## AATTTGGGAC
  switch fluorescence ratio: 0.977

## ACCAGGGTGA
  switch fluorescence ratio: 1.23

## TACCACCTTA
  switch fluorescence ratio: 1.1

## TACTGTTCAT
  switch fluorescence ratio: 0.983

## CATCGGAACG
  switch fluorescence ratio: 1.01

## TGCGTGGTTT
  switch fluorescence ratio: 1.02

## AGCCCCCGGC
  switch fluorescence ratio: 0.99

## CTAGCGAGTG
  switch fluorescence ratio: 0.962

## GATTAACTGA
  switch fluorescence ratio: 1.03

## TCGAGAGC
  switch fluorescence ratio: 0.981

## GATATCTGAA
  switch fluorescence ratio: 0.977

## TATTTAGG
  switch fluorescence ratio: 0.981

## AGAATGCCGT
  switch fluorescence ratio: 1

## TTGTTAAGA
  switch fluorescence ratio: 0.991

## CCAGGGATTG
  switch fluorescence ratio: 1.09

## AAGTTCGTTC
  switch fluorescence ratio: 0.978

## GAATTGACTA
  switch fluorescence ratio: 1.03

## AGTGCGCAAA
  switch fluorescence ratio: 1.25

## CTAACTAGGG
  switch fluorescence ratio: 0.964

## GTGTGGAACT
  switch fluorescence ratio: 0.994

## CCCGCTGTTT
  switch fluorescence ratio: 1.31

## AATTGTAGCA
  switch fluorescence ratio: 0.988

## AGCCAGGTCT
  switch fluorescence ratio: 0.897

## GCAGATGTT
  switch fluorescence ratio: 1.01

## TGATTTTATC
  switch fluorescence ratio: 1.02

## GAAACCGTTG
  switch fluorescence ratio: 1.05

## CCTTAAGATG
  switch fluorescence ratio: 1.16

## TCATTAAGA
  switch fluorescence ratio: 1.01

## GTAGCATTAG
  switch fluorescence ratio: 4.25

## CTCTGTTAAT
  switch fluorescence ratio: 1.2

## TTTTCCGACT
  switch fluorescence ratio: 1.08

## CAGTAGCTTA
  switch fluorescence ratio: 1.71

## GTTCCGTGGC
  switch fluorescence ratio: 1.31

## AGCTACTTTC
  switch fluorescence ratio: 1.07

Reference: the supplement of paper PMC10126150
